From the supplement of paper PMC11055344

Key:
penicillin G = compound: CC1(C)S[C@@H]2[C@H](NC(=O)Cc3ccccc3)C(=O)N2[C@H]1C(=O)O [penicillin G]; experiment: Broth microdilution.
amoxicillin = compound: CC1(C)S[C@@H]2[C@H](NC(=O)[C@H](N)c3ccc(O)cc3)C(=O)N2[C@H]1C(=O)O [amoxicillin]; experiment: Broth microdilution.

Streptococcus pneumoniae isolate 60 (PBP alleles 1a 2b 2x: 2_6_0, serotype: 11A)
MIC (penicillin G): ≤ 0.01 µg/mL | MIC (amoxicillin): ≤ 0.01 µg/mL

Streptococcus pneumoniae isolate 61 (PBP alleles 1a 2b 2x: 86_82_162, serotype: Non-typeable/NCC2a)
MIC (penicillin G): ≤ 0.01 µg/mL | MIC (amoxicillin): ≤ 0.01 µg/mL

Streptococcus pneumoniae isolate 62 (PBP alleles 1a 2b 2x: 7_0_1, serotype: 23B1)
MIC (penicillin G): 0.125 µg/mL | MIC (amoxicillin): 0.03 µg/mL

Streptococcus pneumoniae isolate 63 (PBP alleles 1a 2b 2x: 2_0_2, serotype: 21)
MIC (penicillin G): 0.03 µg/mL | MIC (amoxicillin): 0.03 µg/mL

Streptococcus pneumoniae isolate 64 (PBP alleles 1a 2b 2x: 0_0_3, serotype: 35F)
MIC (penicillin G): 0.03 µg/mL | MIC (amoxicillin): ≤ 0.01 µg/mL

Streptococcus pneumoniae isolate 65 (PBP alleles 1a 2b 2x: 0_0_2, serotype: 35B)
MIC (penicillin G): 0.03 µg/mL | MIC (amoxicillin): ≤ 0.01 µg/mL

Streptococcus pneumoniae isolate 66 (PBP alleles 1a 2b 2x: 2_0_2, serotype: 21)
MIC (penicillin G): 0.03 µg/mL | MIC (amoxicillin): ≤ 0.01 µg/mL

Streptococcus pneumoniae isolate 67 (PBP alleles 1a 2b 2x: 15_76_New, serotype: 11A)
MIC (penicillin G): 2 µg/mL | MIC (amoxicillin): 8 µg/mL

Streptococcus pneumoniae isolate 68 (PBP alleles 1a 2b 2x: 0_0_2, serotype: 10A)
MIC (penicillin G): ≤ 0.01 µg/mL | MIC (amoxicillin): ≤ 0.01 µg/mL

Streptococcus pneumoniae isolate 69 (PBP alleles 1a 2b 2x: 2_0_3, serotype: 34)
MIC (penicillin G): 0.03 µg/mL | MIC (amoxicillin): ≤ 0.01 µg/mL

Streptococcus pneumoniae isolate 70 (PBP alleles 1a 2b 2x: 7_1_1, serotype: 23B1)
MIC (penicillin G): 0.25 µg/mL | MIC (amoxicillin): 0.06 µg/mL

Streptococcus pneumoniae isolate 71 (PBP alleles 1a 2b 2x: 2_4_3, serotype: 10A)
MIC (penicillin G): 0.03 µg/mL | MIC (amoxicillin): ≤ 0.01 µg/mL

Streptococcus pneumoniae isolate 72 (PBP alleles 1a 2b 2x: 1_0_0, serotype: 15B/C)
MIC (penicillin G): ≤ 0.01 µg/mL | MIC (amoxicillin): ≤ 0.01 µg/mL

Streptococcus pneumoniae isolate 73 (PBP alleles 1a 2b 2x: 0_0_53, serotype: 10A)
MIC (penicillin G): 0.03 µg/mL | MIC (amoxicillin): ≤ 0.01 µg/mL

Streptococcus pneumoniae isolate 74 (PBP alleles 1a 2b 2x: 1_2_2, serotype: 22F)
MIC (penicillin G): 0.03 µg/mL | MIC (amoxicillin): ≤ 0.01 µg/mL

Streptococcus pneumoniae isolate 75 (PBP alleles 1a 2b 2x: 2_6_0, serotype: 11A)
MIC (penicillin G): ≤ 0.01 µg/mL | MIC (amoxicillin): ≤ 0.01 µg/mL

Streptococcus pneumoniae isolate 76 (PBP alleles 1a 2b 2x: 1_0_0, serotype: 9N)
MIC (penicillin G): 0.03 µg/mL | MIC (amoxicillin): ≤ 0.01 µg/mL

Streptococcus pneumoniae isolate 77 (PBP alleles 1a 2b 2x: 2_0_6, serotype: 23A)
MIC (penicillin G): 0.03 µg/mL | MIC (amoxicillin): 0.03 µg/mL

Streptococcus pneumoniae isolate 78 (PBP alleles 1a 2b 2x: 78_0_0, serotype: Serogroup 24)
MIC (penicillin G): ≤ 0.01 µg/mL | MIC (amoxicillin): ≤ 0.01 µg/mL

Streptococcus pneumoniae isolate 79 (PBP alleles 1a 2b 2x: 1_2_2, serotype: 22F)
MIC (penicillin G): ≤ 0.01 µg/mL | MIC (amoxicillin): ≤ 0.01 µg/mL

Streptococcus pneumoniae isolate 80 (PBP alleles 1a 2b 2x: 2_0_6, serotype: 23A)
MIC (penicillin G): 0.03 µg/mL | MIC (amoxicillin): ≤ 0.01 µg/mL

Streptococcus pneumoniae isolate 81 (PBP alleles 1a 2b 2x: 2_0_2, serotype: 21)
MIC (penicillin G): ≤ 0.01 µg/mL | MIC (amoxicillin): ≤ 0.01 µg/mL

Streptococcus pneumoniae isolate 82 (PBP alleles 1a 2b 2x: 7_1_New, serotype: 16F)
MIC (penicillin G): 0.25 µg/mL | MIC (amoxicillin): 0.25 µg/mL

Streptococcus pneumoniae isolate 83 (PBP alleles 1a 2b 2x: 13_New_43, serotype: 15A)
MIC (penicillin G): 2 µg/mL | MIC (amoxicillin): 2 µg/mL

Streptococcus pneumoniae isolate 84 (PBP alleles 1a 2b 2x: 0_6_2, serotype: 16F)
MIC (penicillin G): 0.03 µg/mL | MIC (amoxicillin): ≤ 0.01 µg/mL

Streptococcus pneumoniae isolate 85 (PBP alleles 1a 2b 2x: 2_6_0, serotype: 11A)
MIC (penicillin G): ≤ 0.01 µg/mL | MIC (amoxicillin): ≤ 0.01 µg/mL

Streptococcus pneumoniae isolate 86 (PBP alleles 1a 2b 2x: 2_0_6, serotype: 23A)
MIC (penicillin G): 0.03 µg/mL | MIC (amoxicillin): ≤ 0.01 µg/mL

Streptococcus pneumoniae isolate 87 (PBP alleles 1a 2b 2x: 2_3_2, serotype: 3)
MIC (penicillin G): ≤ 0.01 µg/mL | MIC (amoxicillin): ≤ 0.01 µg/mL

Streptococcus pneumoniae isolate 88 (PBP alleles 1a 2b 2x: 78_0_0, serotype: Serogroup 24)
MIC (penicillin G): 0.03 µg/mL | MIC (amoxicillin): ≤ 0.01 µg/mL

Streptococcus pneumoniae isolate 89 (PBP alleles 1a 2b 2x: 2_3_2, serotype: 3)
MIC (penicillin G): 0.03 µg/mL | MIC (amoxicillin): 0.03 µg/mL

Streptococcus pneumoniae isolate 90 (PBP alleles 1a 2b 2x: 86_82_162, serotype: Non-typeable/NCC2a)
MIC (penicillin G): ≤ 0.01 µg/mL | MIC (amoxicillin): ≤ 0.01 µg/mL

Streptococcus pneumoniae isolate 91 (PBP alleles 1a 2b 2x: 2_6_0, serotype: 11A)
MIC (penicillin G): ≤ 0.01 µg/mL | MIC (amoxicillin): ≤ 0.01 µg/mL

Streptococcus pneumoniae isolate 92 (PBP alleles 1a 2b 2x: 2_6_0, serotype: 11A)
MIC (penicillin G): ≤ 0.01 µg/mL | MIC (amoxicillin): ≤ 0.01 µg/mL

Streptococcus pneumoniae isolate 93 (PBP alleles 1a 2b 2x: 2_6_0, serotype: 11A)
MIC (penicillin G): 0.03 µg/mL | MIC (amoxicillin): ≤ 0.01 µg/mL

Streptococcus pneumoniae isolate 94 (PBP alleles 1a 2b 2x: 2_0_2, serotype: 15B/C)
MIC (penicillin G): 0.03 µg/mL | MIC (amoxicillin): ≤ 0.01 µg/mL

Streptococcus pneumoniae isolate 95 (PBP alleles 1a 2b 2x: 1_0_0, serotype: 15A)
MIC (penicillin G): 0.03 µg/mL | MIC (amoxicillin): ≤ 0.01 µg/mL

Streptococcus pneumoniae isolate 96 (PBP alleles 1a 2b 2x: 2_0_2, serotype: 15B/C)
MIC (penicillin G): 0.03 µg/mL | MIC (amoxicillin): ≤ 0.01 µg/mL

Streptococcus pneumoniae isolate 97 (PBP alleles 1a 2b 2x: 2_53_77, serotype: 6C)
MIC (penicillin G): 0.125 µg/mL | MIC (amoxicillin): 0.125 µg/mL

Streptococcus pneumoniae isolate 98 (PBP alleles 1a 2b 2x: 0_0_2, serotype: 10A)
MIC (penicillin G): 0.03 µg/mL | MIC (amoxicillin): ≤ 0.01 µg/mL

Streptococcus pneumoniae isolate 99 (PBP alleles 1a 2b 2x: 2_6_0, serotype: 11A)
MIC (penicillin G): 0.03 µg/mL | MIC (amoxicillin): 0.03 µg/mL

Streptococcus pneumoniae isolate 100 (PBP alleles 1a 2b 2x: 0_0_3, serotype: 35F)
MIC (penicillin G): 0.03 µg/mL | MIC (amoxicillin): ≤ 0.01 µg/mL

Streptococcus pneumoniae isolate 101 (PBP alleles 1a 2b 2x: 2_0_6, serotype: 33F)
MIC (penicillin G): ≤ 0.01 µg/mL | MIC (amoxicillin): ≤ 0.01 µg/mL

Streptococcus pneumoniae isolate 102 (PBP alleles 1a 2b 2x: 7_1_1, serotype: 23B1)
MIC (penicillin G): 0.25 µg/mL | MIC (amoxicillin): 0.06 µg/mL

Streptococcus pneumoniae isolate 103 (PBP alleles 1a 2b 2x: 1_0_0, serotype: 9N)
MIC (penicillin G): 0.03 µg/mL | MIC (amoxicillin): ≤ 0.01 µg/mL

Streptococcus pneumoniae isolate 104 (PBP alleles 1a 2b 2x: 2_6_0, serotype: 11A)
MIC (penicillin G): ≤ 0.01 µg/mL | MIC (amoxicillin): ≤ 0.01 µg/mL

Streptococcus pneumoniae isolate 105 (PBP alleles 1a 2b 2x: 2_0_0, serotype: 17F)
MIC (penicillin G): 0.03 µg/mL | MIC (amoxicillin): ≤ 0.01 µg/mL

Streptococcus pneumoniae isolate 106 (PBP alleles 1a 2b 2x: 7_1_1, serotype: 23B1)
MIC (penicillin G): 0.25 µg/mL | MIC (amoxicillin): 0.06 µg/mL

Streptococcus pneumoniae isolate 107 (PBP alleles 1a 2b 2x: 0_4_2, serotype: 6C)
MIC (penicillin G): 0.03 µg/mL | MIC (amoxicillin): 0.03 µg/mL

Streptococcus pneumoniae isolate 108 (PBP alleles 1a 2b 2x: 2_6_0, serotype: 11A)
MIC (penicillin G): 0.03 µg/mL | MIC (amoxicillin): ≤ 0.01 µg/mL

Streptococcus pneumoniae isolate 109 (PBP alleles 1a 2b 2x: 2_0_2, serotype: 21)
MIC (penicillin G): 0.03 µg/mL | MIC (amoxicillin): ≤ 0.01 µg/mL

Streptococcus pneumoniae isolate 110 (PBP alleles 1a 2b 2x: 2_0_6, serotype: 23A)
MIC (penicillin G): 0.03 µg/mL | MIC (amoxicillin): 0.03 µg/mL

Streptococcus pneumoniae isolate 111 (PBP alleles 1a 2b 2x: 0_0_0, serotype: 23B)
MIC (penicillin G): ≤ 0.01 µg/mL | MIC (amoxicillin): ≤ 0.01 µg/mL

Streptococcus pneumoniae isolate 112 (PBP alleles 1a 2b 2x: 2_6_0, serotype: 11A)
MIC (penicillin G): 0.03 µg/mL | MIC (amoxicillin): ≤ 0.01 µg/mL

Streptococcus pneumoniae isolate 113 (PBP alleles 1a 2b 2x: 0_0_3, serotype: 35F)
MIC (penicillin G): ≤ 0.01 µg/mL | MIC (amoxicillin): ≤ 0.01 µg/mL

Streptococcus pneumoniae isolate 114 (PBP alleles 1a 2b 2x: 0_0_3, serotype: 35F)
MIC (penicillin G): 0.03 µg/mL | MIC (amoxicillin): ≤ 0.01 µg/mL

Streptococcus pneumoniae isolate 115 (PBP alleles 1a 2b 2x: 1_4_2, serotype: 20)
MIC (penicillin G): ≤ 0.01 µg/mL | MIC (amoxicillin): ≤ 0.01 µg/mL

Streptococcus pneumoniae isolate 116 (PBP alleles 1a 2b 2x: 0_0_3, serotype: 35F)
MIC (penicillin G): ≤ 0.01 µg/mL | MIC (amoxicillin): ≤ 0.01 µg/mL

Streptococcus pneumoniae isolate 117 (PBP alleles 1a 2b 2x: 2_6_0, serotype: 11A)
MIC (penicillin G): ≤ 0.01 µg/mL | MIC (amoxicillin): ≤ 0.01 µg/mL

Streptococcus pneumoniae isolate 118 (PBP alleles 1a 2b 2x: 7_1_1, serotype: 23B1)
MIC (penicillin G): 0.125 µg/mL | MIC (amoxicillin): 0.03 µg/mL

MIC of nasopharyngeal S. pneumoniae isolates by broth microdilution (range and time not stated); higher = less susceptible. No active / inactive call per row; the paper counts penicillin above 0.06 and amoxicillin above 0.5 mg/L as non-susceptible (EUCAST). The lowest value, 0.01, is taken as the floor ('<='); the source prints it plain. Penicillin G is assumed for 'penicillin'. Isolates are numbered anew. PBP alleles are the type numbers of penicillin-binding proteins 1a, 2b and 2x; equal numbers mean equal sequences.
